{"source": "the supplement of paper PMC8728848", "test_in_all_cases": "glycan array binding signal (z-score within array); higher = stronger binding", "settings_in_all_cases": "glycan notation: IUPAC condensed, linker removed", "key": {"[1]": {"molecular_target": "Gal(b1-4)GlcNAc(b1-3)Gal(b1-4)GlcNAc(b1-6)[Gal(b1-3)]GalNAc", "procedure,_shortened": "(§1)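 From the Consortium for Functional Glycomics database, 3228 arrays were curated, keeping only those whose protein sequence was available. Binding is given as a within-array Z-score averaged across arrays sharing a protein sequence and across linkers. Negative Z-scores can be read as non-binding.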"}, "[2]": {"molecular_target": "Gal(b1-4)GlcNAc(b1-3)Gal(b1-4)[Fuc(a1-3)]GlcNAc(b1-3)Gal(b1-4)[Fuc(a1-3)]GlcNAc", "procedure,_shortened": "as §1"}, "[3]": {"molecular_target": "Gal(b1-4)GlcNAc(b1-3)GalNAc", "procedure,_shortened": "as §1"}, "[4]": {"molecular_target": "Gal(b1-4)GlcNAc(b1-3)[Fuc(a1-3)GlcNAc(b1-6)]Gal(b1-4)Glc", "procedure,_shortened": "as §1"}, "[5]": {"molecular_target": "Gal(b1-4)GlcNAc(b1-3)[Gal(b1-4)GlcNAc(b1-6)]Gal(b1-4)GlcNAc", "procedure,_shortened": "as §1"}, "[6]": {"molecular_target": "Gal(b1-4)GlcNAc(b1-3)[GlcNAc(b1-6)]Gal(b1-4)GlcNAc", "procedure,_shortened": "as §1"}, "[7]": {"molecular_target": "Gal(b1-4)GlcNAc(b1-6)Gal(b1-4)GlcNAc", "procedure,_shortened": "as §1"}, "[8]": {"molecular_target": "Gal(b1-4)GlcNAc(b1-6)Gal(b1-4)GlcNAc(b1-6)GalNAc", "procedure,_shortened": "as §1"}, "[9]": {"molecular_target": "Gal(b1-4)GlcNAc(b1-6)GalNAc", "procedure,_shortened": "as §1"}, "[10]": {"molecular_target": "Gal(b1-4)GlcNAc(b1-6)[Gal(b1-3)]GalNAc", "procedure,_shortened": "as §1"}, "[11]": {"molecular_target": "Gal(b1-4)GlcNAc(b1-6)[Gal(b1-4)GlcNAc(b1-3)]GalNAc", "procedure,_shortened": "as §1"}, "[12]": {"molecular_target": "Gal(b1-4)GlcNAc6P", "procedure,_shortened": "as §1"}, "[13]": {"molecular_target": "Gal(b1-6)Gal", "procedure,_shortened": "as §1"}, "[14]": {"molecular_target": "Gal3S(b1-3)GalNAc", "procedure,_shortened": "as §1"}, "[15]": {"molecular_target": "Gal3S(b1-3)GlcNAc", "procedure,_shortened": "as §1"}, "[16]": {"molecular_target": "Gal3S(b1-3)[Fuc(a1-4)]GlcNAc", "procedure,_shortened": "as §1"}, "[17]": {"molecular_target": "Gal3S(b1-4)Glc", "procedure,_shortened": "as §1"}, "[18]": {"molecular_target": "Gal3S(b1-4)Glc6S", "procedure,_shortened": "as §1"}, "[19]": {"molecular_target": "Gal3S(b1-4)GlcNAc", "procedure,_shortened": "as §1"}, "[20]": {"molecular_target": "Gal3S(b1-4)GlcNAc6S", "procedure,_shortened": "as §1"}, "[21]": {"molecular_target": "Gal3S(b1-4)[Fuc(a1-3)]Glc", "procedure,_shortened": "as §1"}, "[22]": {"molecular_target": "Gal3S(b1-4)[Fuc(a1-3)]Glc6S", "procedure,_shortened": "as §1"}, "[23]": {"molecular_target": "Gal3S(b1-4)[Fuc(a1-3)]GlcNAc", "procedure,_shortened": "as §1"}, "[24]": {"molecular_target": "Gal3S(b1-4)[Fuc(a1-3)]GlcNAc6S", "procedure,_shortened": "as §1"}, "[25]": {"molecular_target": "Gal3S4S(b1-4)GlcNAc", "procedure,_shortened": "as §1"}, "[26]": {"molecular_target": "Gal3S6S(b1-4)GlcNAc", "procedure,_shortened": "as §1"}, "[27]": {"molecular_target": "Gal3S6S(b1-4)GlcNAc6S", "procedure,_shortened": "as §1"}, "[28]": {"molecular_target": "Gal4S(b1-4)GlcNAc", "procedure,_shortened": "as §1"}, "[29]": {"molecular_target": "Gal4S6S(b1-4)GlcNAc", "procedure,_shortened": "as §1"}, "[30]": {"molecular_target": "Gal6P(b1-4)GlcNAc", "procedure,_shortened": "as §1"}, "[31]": {"molecular_target": "Gal6S(b1-3)GlcNAc", "procedure,_shortened": "as §1"}, "[32]": {"molecular_target": "Gal6S(b1-3)GlcNAc6S", "procedure,_shortened": "as §1"}, "[33]": {"molecular_target": "Gal6S(b1-4)Glc", "procedure,_shortened": "as §1"}, "[34]": {"molecular_target": "Gal6S(b1-4)Glc6S", "procedure,_shortened": "as §1"}, "[35]": {"molecular_target": "Gal6S(b1-4)GlcNAc", "procedure,_shortened": "as §1"}, "[36]": {"molecular_target": "Gal6S(b1-4)GlcNAc6S", "procedure,_shortened": "as §1"}, "[37]": {"molecular_target": "GalNAc(a1-3)Gal", "procedure,_shortened": "as §1"}, "[38]": {"molecular_target": "GalNAc(a1-3)GalNAc", "procedure,_shortened": "as §1"}, "[39]": {"molecular_target": "GalNAc(a1-3)GalNAc(b1-3)Gal(a1-4)Gal(b1-4)Glc", "procedure,_shortened": "as §1"}, "[40]": {"molecular_target": "GalNAc(a1-3)GalNAc(b1-3)Gal(a1-4)Gal(b1-4)GlcNAc", "procedure,_shortened": "as §1"}, "[41]": {"molecular_target": "GalNAc(b1-3)Gal", "procedure,_shortened": "as §1"}, "[42]": {"molecular_target": "GalNAc(b1-3)Gal(a1-4)Gal(b1-4)GlcNAc", "procedure,_shortened": "as §1"}, "[43]": {"molecular_target": "GalNAc(b1-3)Gal(a1-4)Gal(b1-4)GlcNAc(b1-3)Gal(b1-4)Glc", "procedure,_shortened": "as §1"}, "[44]": {"molecular_target": "GalNAc(b1-3)Gal(a1-6)Gal(b1-4)Glc", "procedure,_shortened": "as §1"}, "[45]": {"molecular_target": "GalNAc(b1-3)GalNAc", "procedure,_shortened": "as §1"}}, "note": "The list shows a part of the results."}
{"binder": "HPAIIITrx (Helix pomatia), Q1KM18 (protein) MLFVTIISLGLLAIVHGQCALKTIAFSAAIDREQTFDANQVVIYDIVITNHGNAYDNSTGLFTAPVDGMYSFQLNLLTIKEKEGWLELVHNGQLKVSVYAKQDSTYDSSSNSVIIKMKEGDRVNVRAHKKSGLFGRDDELYNTFSGHFLSGL", "values": [{"measurement": "glycan array binding signal (z-score)", "setting": "[1]", "result": 0.156}, {"measurement": "glycan array binding signal (z-score)", "setting": "[2]", "result": -0.116}, {"measurement": "glycan array binding signal (z-score)", "setting": "[3]", "result": -0.185}, {"measurement": "glycan array binding signal (z-score)", "setting": "[4]", "result": -0.139}, {"measurement": "glycan array binding signal (z-score)", "setting": "[5]", "result": -0.21}, {"measurement": "glycan array binding signal (z-score)", "setting": "[6]", "result": -0.312}, {"measurement": "glycan array binding signal (z-score)", "setting": "[7]", "result": -0.405}, {"measurement": "glycan array binding signal (z-score)", "setting": "[8]", "result": -0.026}, {"measurement": "glycan array binding signal (z-score)", "setting": "[9]", "result": -0.158}, {"measurement": "glycan array binding signal (z-score)", "setting": "[10]", "result": -0.344}, {"measurement": "glycan array binding signal (z-score)", "setting": "[11]", "result": -0.341}, {"measurement": "glycan array binding signal (z-score)", "setting": "[12]", "result": 0.577}, {"measurement": "glycan array binding signal (z-score)", "setting": "[13]", "result": 0.217}, {"measurement": "glycan array binding signal (z-score)", "setting": "[14]", "result": -0.106}, {"measurement": "glycan array binding signal (z-score)", "setting": "[15]", "result": -0.153}, {"measurement": "glycan array binding signal (z-score)", "setting": "[16]", "result": -0.199}, {"measurement": "glycan array binding signal (z-score)", "setting": "[17]", "result": 0.469}, {"measurement": "glycan array binding signal (z-score)", "setting": "[18]", "result": 0.507}, {"measurement": "glycan array binding signal (z-score)", "setting": "[19]", "result": -0.024}, {"measurement": "glycan array binding signal (z-score)", "setting": "[20]", "result": 0.307}, {"measurement": "glycan array binding signal (z-score)", "setting": "[21]", "result": -0.474}, {"measurement": "glycan array binding signal (z-score)", "setting": "[22]", "result": 0.204}, {"measurement": "glycan array binding signal (z-score)", "setting": "[23]", "result": -0.24}, {"measurement": "glycan array binding signal (z-score)", "setting": "[24]", "result": 1.09}, {"measurement": "glycan array binding signal (z-score)", "setting": "[25]", "result": 0.795}, {"measurement": "glycan array binding signal (z-score)", "setting": "[26]", "result": 0.425}, {"measurement": "glycan array binding signal (z-score)", "setting": "[27]", "result": 0.795}, {"measurement": "glycan array binding signal (z-score)", "setting": "[28]", "result": -0.358}, {"measurement": "glycan array binding signal (z-score)", "setting": "[29]", "result": 0.361}, {"measurement": "glycan array binding signal (z-score)", "setting": "[30]", "result": 0.126}, {"measurement": "glycan array binding signal (z-score)", "setting": "[31]", "result": -0.385}, {"measurement": "glycan array binding signal (z-score)", "setting": "[32]", "result": 0.096}, {"measurement": "glycan array binding signal (z-score)", "setting": "[33]", "result": -0.135}, {"measurement": "glycan array binding signal (z-score)", "setting": "[34]", "result": 0.519}, {"measurement": "glycan array binding signal (z-score)", "setting": "[35]", "result": -0.28}, {"measurement": "glycan array binding signal (z-score)", "setting": "[36]", "result": 0.61}, {"measurement": "glycan array binding signal (z-score)", "setting": "[37]", "result": 2.5}, {"measurement": "glycan array binding signal (z-score)", "setting": "[38]", "result": 3.35}, {"measurement": "glycan array binding signal (z-score)", "setting": "[39]", "result": 5.39}, {"measurement": "glycan array binding signal (z-score)", "setting": "[40]", "result": 4.56}, {"measurement": "glycan array binding signal (z-score)", "setting": "[41]", "result": -0.201}, {"measurement": "glycan array binding signal (z-score)", "setting": "[42]", "result": -0.178}, {"measurement": "glycan array binding signal (z-score)", "setting": "[43]", "result": -0.456}, {"measurement": "glycan array binding signal (z-score)", "setting": "[44]", "result": -0.41}, {"measurement": "glycan array binding signal (z-score)", "setting": "[45]", "result": -0.254}]}
